{"source": "PubChem BioAssay AID902", "about": "(National Center for Advancing Translational Sciences (NCATS), 2007)", "note": "Screen size: about 130,000 compounds; about 1,900 (1.5%) were called active. Inconclusive results, whose numbers are uncertain, are shown with a selection of clear calls. The call rests on the fitted dose curve; in most records, active means well fitted cell-killing curve with a large enough effect; inconclusive means small, poorly fitted or top-dose-only effect; inactive means no such curve, though single readings can be large or run the other way. Potencies of inconclusive entries are doubtful fits and often do not repeat.", "data": [{"assay": "qHTS Screen for Compounds that Selectively Target Cancer Cells with p53 Mutations: Cytotoxicity of p53ts Cells at the Nonpermissive Temperature; further: nearly all actives have a fitted effect of over 55% in size; further: potency means the concentration at half of the fitted maximal effect; tags describe the fitted curve by direction and shape; on activity change, negative = cell killing: on the % scale 0 is the no-effect control and ±100 the full control effect", "conditions": "H1299-p53A138V viability at 39C, ATP luminescence, 24 h; activity change, negative = cell killing: at 46.1 µM (top of the series)", "values": [{"compound": "Oc1c(C(c2ccccn2)N2CCOCC2)ccc2cccnc12", "note": "(configuration not stated)", "Potency": "active: 12.6 µM"}, {"compound": "COc1ccc(/C=N\\n2nnc3ccccc32)cc1", "Potency": "active: 10 µM"}, {"compound": "COC(=O)c1ccc(NC(=O)CSc2ccc(-c3sc(-c4ccccc4)nc3C)nn2)cc1", "activity change, negative = cell killing": "inactive: 3.47%"}, {"compound": "COC(=O)c1cccc(C(=O)Nc2ccc(C)cc2)n1", "Potency": "inconclusive: 10 µM [cytotoxic, partial curve]"}, {"compound": "CCS(=O)(=O)Nc1ccc(-c2cn3ccsc3n2)cc1", "Potency": "inconclusive: 12.6 µM [cytotoxic, partial curve]"}, {"compound": "COc1ccc(-c2nc3sc(CCNC(=O)c4ccco4)c(C)n3n2)cc1", "Potency": "inconclusive: 12.6 µM [cytotoxic, single point]"}, {"compound": "Cn1cc(CN(C(=O)Nc2ccccc2)C2CCCCC2)c2ccccc21", "Potency": "inconclusive: 15.8 µM [cytotoxic, single point]"}, {"compound": "COc1ccc(Cn2nnnc2CN(Cc2cc3cc(C)ccc3[nH]c2=O)C2CCCC2)cc1", "activity change, negative = cell killing": "inactive: 8.74%"}, {"compound": "O=C(Nc1ccc2ccccc2c1)c1cnccn1", "Potency": "inconclusive: 10 µM [cytotoxic, partial curve]"}, {"compound": "CC1=C(C(=O)Nc2ccccc2)C(C(C)C)n2nc(SCc3ccccc3C)nc2N1", "note": "(configuration not stated)", "Potency": "inconclusive: 1.58 µM [cytotoxic, partial curve, poor fit]"}, {"compound": "O=C(CCCn1c(=O)[nH]c2ccc(Br)cc2c1=O)N1CCN(c2cccc(Cl)c2)CC1", "Potency": "inconclusive: 31.6 µM [cytotoxic, single point]"}, {"compound": "COC(=O)c1ccccc1NC(=O)Cn1nnc(-c2ccc(OC)cc2)n1", "Potency": "inconclusive: 3.98 µM [cytotoxic, full curve, poor fit]"}, {"compound": "CCCNC(=O)Cn1nc(-c2ccc(C)cc2)c2cnc3ccc(CC)cc3c21", "activity change, negative = cell killing": "inactive: 7.03%"}, {"compound": "Clc1ccc2nc(-c3ccc(N4CCOCC4)cc3)c(Nc3ccccc3)n2c1", "activity change, negative = cell killing": "inactive: 19%"}, {"compound": "CCC(C)c1ccc(NC(=S)NC2CCN(Cc3ccccc3)CC2)cc1", "note": "(configuration not stated)", "Potency": "inconclusive: 15.8 µM [cytotoxic, single point]"}, {"compound": "Cc1ccc(Cl)cc1NC(=O)CN1C(=O)c2ccccc2Sc2ncccc21", "activity change, negative = cell killing": "inactive: -3.72%"}, {"compound": "Cc1ccc2nsnc2c1S(=O)(=O)Nc1cccc2nsnc12", "activity change, negative = cell killing": "inactive: 10.3%"}, {"compound": "CCOc1ccc(CNc2cc(C)nc3nc(-c4cccc(C)c4)nn23)cc1OC", "Potency": "active: 7.94 µM"}, {"compound": "Cc1cccc(NC(=O)c2ccc3oc(=O)c(S(=O)(=O)c4ccc(F)cc4)cc3c2)c1C", "Potency": "inconclusive: 31.6 µM [cytotoxic, single point]"}, {"compound": "CCCCN(CC)C(=O)c1ccc2c(c1)NC(=O)c1ccccc1S2", "Potency": "inconclusive: 0.0126 µM [cytotoxic, full curve]"}, {"compound": "O=C(Nc1ccc2c(c1)OCO2)c1cnn2cccnc12", "Potency": "inconclusive: 10 µM [cytotoxic, single point]"}, {"compound": "Cc1ccc(-n2c(=O)c3ccc(C(=O)NCc4ccco4)cc3n(CC(=O)Nc3ccc(C)c(F)c3)c2=O)cc1", "Potency": "inconclusive: 2.51 µM [cytotoxic, partial curve]"}, {"compound": "COc1ccc(CNC(=O)c2ccc3c(c2)nc2n3CCCCC2)cc1", "Potency": "inconclusive: 10 µM [cytotoxic, partial curve]"}, {"compound": "CCCOc1c(OC)cccc1C1CC(=O)Nc2cc3c(cc21)OCCO3", "note": "(configuration not stated)", "activity change, negative = cell killing": "inactive: 81.8%"}, {"compound": "CCC1CN(C(=O)N2CCC(C(=O)N3CCN(c4ccccc4)CC3)CC2)c2ccccc2O1", "note": "(configuration not stated)", "Potency": "inconclusive: 0.708 µM [cytotoxic, partial curve]"}, {"compound": "CCOc1ccc(NC(=O)Cn2c(=O)n(CCCCC(=O)NCCc3ccc(Cl)cc3)c(=O)c3ccccc32)cc1", "Potency": "inconclusive: 2.51 µM [cytotoxic, full curve, poor fit]"}, {"compound": "CCOc1ccc(C(=O)Nc2ccc3oc(-c4ccc(C)cc4C)nc3c2)cc1Br", "Potency": "inconclusive: 12.6 µM [cytotoxic, single point]"}, {"compound": "O=C(Nc1cccc(Cl)c1)N1CC2CCCN2c2ccccc21", "note": "(configuration not stated)", "Potency": "active: 10 µM"}, {"compound": "CCOC(=O)c1cc(-c2ccc(C)cc2)n(CCCC(=O)Nc2cc(C)ccc2C)c1", "Potency": "inconclusive: 20 µM [cytotoxic, single point]"}, {"compound": "CCOc1ccc(Sc2cc(C(=O)NCc3ccc(C)cc3)c3ccccc3n2)cc1", "Potency": "inconclusive: 12.6 µM [cytotoxic, partial curve]"}, {"compound": "CCOc1ccc(NC(=O)CCc2c(C)nc3cc(-c4ccccc4OC)nn3c2C)cc1", "Potency": "inconclusive: 31.6 µM [cytotoxic, single point]"}, {"compound": "O=C(c1ccc(CS(=O)(=O)c2ccc(Br)cc2)o1)N1CCN(c2ccc(F)cc2)CC1", "Potency": "inconclusive: 10 µM [cytotoxic, partial curve]"}, {"compound": "CCOC(=O)CSc1nc2ccccc2c(=O)n1CC1CCC(C(=O)NCc2ccco2)CC1", "note": "(configuration not stated)", "Potency": "inconclusive: 31.6 µM [cytotoxic, single point]"}, {"compound": "Cc1oc2c(cc(NS(=O)(=O)c3ccc(C(C)C)cc3)c3ccccc32)c1C(=O)OCc1ccccc1", "Potency": "inconclusive: 20 µM [cytotoxic, partial curve]"}, {"compound": "COc1ccc2nc3cc(Cl)ccc3c(Nc3ccc(O)c(CN4CCN(C)CC4)c3)c2c1", "activity change, negative = cell killing": "inactive: 8.48% [at 9.22 µM]"}, {"compound": "CC(=O)c1cccc(NS(=O)(=O)c2ccc3[nH]c4c(c3c2)CCCCC4)c1", "Potency": "inconclusive: 10 µM [cytotoxic, partial curve, poor fit]"}, {"compound": "Cc1cc(C)n(-c2nc3ccccc3nc2Nc2ccc3[nH]c(=O)[nH]c3c2)n1", "activity change, negative = cell killing": "inactive: 0.174%"}, {"compound": "Cc1ccc(C(=O)O)cc1NC(=O)c1nsc2ccccc12", "activity change, negative = cell killing": "inactive: 2.13%"}, {"compound": "Cc1ccc(CNC(=O)c2cc(-c3ccc(C)c(C)c3)nc3ccccc23)cc1", "activity change, negative = cell killing": "inconclusive: -32.3% [cytotoxic]"}, {"compound": "COc1cc(OC)c(NC(=O)Nc2ccc3c(c2)N(C)C(=O)c2ccccc2S3)cc1Cl", "Potency": "inconclusive: 7.94 µM [cytotoxic, partial curve]"}, {"compound": "CCn1c2ccccc2c2cc(CN3CCN(Cc4cccc(Cl)c4)CC3)ccc21", "Potency": "inconclusive: 12.6 µM [cytotoxic, partial curve]"}, {"compound": "Cc1ccccc1Cn1c(COc2ccc(Cl)cc2)nc2ccccc21", "Potency": "inconclusive: 25.1 µM [cytotoxic, single point]"}]}]}
